PubChem BioAssay AID1508623 (National Center for Advancing Translational Sciences (NCATS), 2021)
Screen size: about 48,000 compounds; about 450 (0.94%) were called active. The inconclusive results got no clear call from the source; some entries with a clear call stand among them for comparison. Calls come from the whole dose curve; as a rule, active = well fitted inhibition curve with a large enough effect; inconclusive = small, poorly fitted or top-dose-only effect; inactive = no such curve, though single readings can be large or run the other way. Potencies beside an inconclusive call are fits to weak or partial responses and may not hold up.
Potency is the fitted concentration of half-maximal effect; tags give direction and shape of the fitted curve.

Test: Primary qHTS for Identification of Small Molecule Inhibitors of Huntingtin Promoter Activity; note: nearly all actives have a fitted effect of over 50% in size
Details: HEK293 HTT promoter firefly luciferase reporter (activity 0% = vehicle and -100% = no light), 24 h; series mostly up to 57.5 µM
Summary of the method: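 HEK293 Fluc reporter, 2,500 cells/well, 24 h pre-culture; cpds up to 57.5 uM final, 24 h 37 degrees C; Dual-Glo, 10 min RT; normalized vehicle = 0%, zero RLU = -100%.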
For Cc1ccc(-c2nnc(Nc3ccc(O)cc3)c3ccccc23)cc1S(=O)(=O)N1CCCCC1, the Potency was inconclusive: 39.8 µM [inhibitor, partial curve, poor fit].
For CC(C)(C)C(=O)Nc1ccc2nc(SCC(=O)N3CCc4ccccc43)sc2c1, the Potency was inconclusive: 39.8 µM [inhibitor, single point].
In the case of COc1ccccc1NC(=O)CSc1oc(-c2ccccc2)nc1S(=O)(=O)c1ccccc1, the Potency was inconclusive: 17.8 µM [inhibitor, partial curve, poor fit].
In the case of CCc1cccc(C)c1NC(=O)c1ccc2c(c1)CCN2S(=O)(=O)CC, the Potency was inconclusive: 39.8 µM [inhibitor, single point].
For COc1ccccc1CNS(=O)(=O)c1ccc2c(c1)CC(C)N2C(=O)C1CCC1 (stereo not given), the Potency was inconclusive: 28.2 µM [inhibitor, partial curve, poor fit].
In the case of Cc1ccc(NC(=O)C2CCCN2S(=O)(=O)c2ccc3c(c2)C(C)(C)C(=O)N3C)cc1 (stereo not given), the Potency was inconclusive: 35.5 µM [inhibitor, partial curve, poor fit].
With COc1ccc(-c2cc(C)no2)cc1S(=O)(=O)NC1CCC(C)CC1 (stereo not given) the Potency was inconclusive: 25.1 µM [inhibitor, single point].
For Cc1ccc(S(=O)(=O)c2nc(-c3ccco3)oc2SCc2ccc(F)cc2)cc1, the Potency was inconclusive: 22.4 µM [inhibitor, partial curve].
In the case of CCOc1ccc(-n2ccnc2SCC(=O)Nc2ccc3c(c2)OCO3)cc1, the Potency was inconclusive: 39.8 µM [inhibitor, partial curve, poor fit].
With COc1ccc(S(=O)(=O)NCCc2sc3nc(-c4ccc(C)cc4)nn3c2C)cc1F the Potency was inconclusive: 15.8 µM [inhibitor, partial curve, poor fit].
In the case of COc1cccc(NC(=O)c2c(N3CCCC3=O)c3cc(C)ccc3n2C)c1, the Potency was inconclusive: 31.6 µM [inhibitor, partial curve, poor fit].
For Nc1nc(F)nc2c1ncn2[C@@H]1O[C@H](CO)[C@@H](O)[C@@H]1O, the Potency was inconclusive: 2.17 µM [inhibitor, full curve].
In the case of CCOc1ccc(CCNC(=O)c2cccc(-n3c(C)nc4cccnc43)c2C)cc1, the Potency was inconclusive: 14.1 µM [inhibitor, partial curve, poor fit].
With CCc1cccc(C)c1NC(=O)C1CCN(S(=O)(=O)c2cccc3nonc23)CC1 the Potency was inconclusive: 22.4 µM [inhibitor, single point].
For O=C1CC(c2ccc(Cl)cc2)c2cc3c(cc2N1)OCCO3 (stereo not given), the Potency was inconclusive: 28.2 µM [inhibitor, single point].
With CCCCCn1c(=O)[nH]c2cc(C(=O)N3CCN(c4cccc(OC)c4)CC3)ccc2c1=O the Potency was inconclusive: 28.2 µM [inhibitor, single point].
In the case of CCCCC(=O)Nc1c(C(=O)N2CCN(c3ccccc3)CC2)oc2ccccc12, the Potency was inconclusive: 31.6 µM [inhibitor, single point].
With CC(=O)N1CCOc2cc(S(=O)(=O)Nc3c(C)cccc3C(C)C)c(Cl)cc21 the Potency was inconclusive: 15.8 µM [inhibitor, partial curve, poor fit].
For O=C(Nc1ccccc1F)C1CCN(S(=O)(=O)c2ccc3c(c2)CCCN3C(=O)C2CCC2)CC1, the Potency was inconclusive: 28.2 µM [inhibitor, partial curve].
For Cc1ccc(-c2nc(CS(=O)CC(=O)N3CCN(c4ccc(F)cc4)CC3)c(C)o2)cc1 (stereo not given), the Potency was inconclusive: 31.6 µM [inhibitor, single point].
With CC(=O)OCC(=O)[C@@]12N=C(C)O[C@H]1C[C@H]1[C@@H]3CCC4=CC(=O)C=C[C@]4(C)[C@@H]3[C@@H](O)C[C@@]12C the Potency was inconclusive: 21.7 µM [inhibitor, partial curve].
With N#CC(=C1Nc2ccccc2S1)c1ccnc(OCc2ccc(CN3CCOCC3)cc2)n1 the Potency was inconclusive: 6.11 µM [inhibitor, full curve].
For CCOC(=O)c1ccccc1NC(=O)c1cc2c(s1)-c1ccccc1SC2, the Potency was inconclusive: 28.2 µM [inhibitor, single point].
With CC1=C(c2ccc(Cl)cc2)S(=O)(=O)N=C1N1CCC(C(=O)NCCc2ccco2)CC1 the Potency was inconclusive: 14.1 µM [inhibitor, partial curve, poor fit].
For Cc1ccc(Cl)cc1N1CCN(C(=O)c2nn(C)c3c2CS(=O)(=O)c2ccccc2-3)CC1, the Potency was inconclusive: 20 µM [inhibitor, partial curve, poor fit].
With COc1ccc(CCNC(=O)CCc2cn(Cc3ccc(F)cc3)c3ccccc23)cc1OC the Potency was inconclusive: 35.5 µM [inhibitor, single point].
For Cc1cccc(N2CCN(C(=O)c3cccn3-c3nnc(N4CCCCC4)s3)CC2)c1C, the Potency was inconclusive: 22.4 µM [inhibitor, partial curve, poor fit].
In the case of O=C(NC1CC1)c1ccc(Cn2c(SCc3ccc(F)cc3)nc3cccnc32)cc1, the Potency was “inactive”.
With COc1ccc(-c2cc(C(C)=O)c(C)n2CCC(=O)Nc2ccc(C)c(Cl)c2)cc1 the Potency was inconclusive: 12.6 µM [inhibitor, partial curve, poor fit].
In the case of CCCNc1ncnc2c1c(-c1ccccc1)cn2-c1ccc(OCC)cc1, the Potency was inconclusive: 39.8 µM [inhibitor, single point].
For COc1ccc(NC(=O)CCn2c(-c3ccc(F)cc3)cc(C(C)=O)c2C)c(OC)c1, the Potency was inconclusive: 12.6 µM [inhibitor, partial curve, poor fit].
With O=c1cc(CSc2ccccc2)[nH]c2ccc(F)cc12 the Potency was inconclusive: 12.6 µM [inhibitor, partial curve, poor fit].
For CCCOc1ccc(C(=O)Nc2ccc(-c3cc4ccccc4oc3=O)c(C)c2)cc1, the Potency was inconclusive: 15.8 µM [inhibitor, partial curve, poor fit].
In the case of Cc1ccc(NC(=O)c2c(C)oc3ccc(O)c(CN(C)Cc4ccccc4)c23)c(C)c1, the Potency was “inactive”.
In the case of Cc1ccccc1C(=O)Nc1nnc(S(=O)(=O)N(C)c2ccc(Cl)cc2)s1, the Potency was inconclusive: 22.4 µM [inhibitor, single point].
